# Measurements as given in patent US20250051434A1 (Merck Sharp & Dohme, published 2025).
# B1: IL-12-Fc-45 (Fc fusion)
# chain 1: TPDPGMFPCLHHSQNLLRAVSNMLQKARQTLEFYPCTSEEIDHEDITKDKTSTVEACLPLELTKNESCLNSRETSFITNGSCLASRKTSFMMALCLSSIYEDLKMYQVEFKTMNAKLLMDPKRQIFLDQNMLAVIDELMQALNFNSETVPQKSSLEEPKFYKTKIKLCILLHAFRIRAVTIDRVMSYLNASGGGGSGGGGSGGGGS[skipping human IgG1 Fc with L234A L235A D265S S354C T366W (EU numbers)]
# chain 2: IWELKKDVYVVELDWYPDAPGEMVVLTCDTPEEDGITWTLDQSSEVLGSGKTLTIQVKEFGDAGQYTCHKGGEVLSHSLLLLHKKEDGIWSTDILKDQKEPKNETFLRCEAKNYSGRFTCWWLTTISTDLTFSVKSSRGSSDPQGVTCGAATLSAERVRGDNKEYEYSVECQEDSACPAAEESLPIEVMVDAVHKLKYENYTSSFFIRDIIKPDPPKNLQLKPLKNSRQVEVSWEYPDTWSTPHSYFSLTFCVQVQGKSKREKKDRVFTDKTSATVICRKNASISVRAQDRYYSSSWSEWASVPCSGGGGDKTHTCPPCPAPEAAGGPSVFLFPPKPKDTLMISRTPEVTCVVVSVSHEDPEVKFNWYVDGVEVHNAKTKPREEQYNSTYRVVSVLTVLHQDWLNGKEYKCKVSNKALPAPIEKTISKAKGQPREPQVCTLPPSRDELTKNQVSLSCAVKGFYPSDIAVEWESNGQPENNYKTTPPVLDSDGSFFLVSKLTVDKSRWQQGNVFSCSVMHEALHNHYTQKSLSLSPGK
# B2: IL-12-Fc-48 (Fc fusion)
# chain 1: TPDPGMFPCLHHSQNLLRAVSNMLQKARQTLEFYPCTSEEIDHEDITKDKTSTVEACLPLELTKNESCLNSRETSFITNGSCLASRKTSFMMALCLSSIYEDLKMYQVEFKTMNAKLLMDPKRQIFLDQNMLAVIDELMQALNFNSETVPQKSSLEEPDFTKTKIKLCILLHAFRIRAVTIDRVMSYLNASGGGGSGGGGSGGGGS[skipping human IgG1 Fc with L234A L235A D265S S354C T366W (EU numbers)]
# chain 2: IWELKKDVYVVELDWYPDAPGEMVVLTCDTPEEDGITWTLDQSSEVLGSGKTLTIQVKEFGDAGQYTCHKGGEVLSHSLLLLHKKEDGIWSTDILKDQKEPKNETFLRCEAKNYSGRFTCWWLTTISTDLTFSVKSSRGSSDPQGVTCGAATLSAERVRGDNKEYEYSVECQEDSACPAAEESLPIEVMVDAVHKLKYENYTSSFFIRDIIKPDPPKNLQLKPLKNSRQVEVSWEYPDTWSTPHSYFSLTFCVQVQGKSKREKKDRVFTDKTSATVICRKNASISVRAQDRYYSSSWSEWASVPCSGGGGDKTHTCPPCPAPEAAGGPSVFLFPPKPKDTLMISRTPEVTCVVVSVSHEDPEVKFNWYVDGVEVHNAKTKPREEQYNSTYRVVSVLTVLHQDWLNGKEYKCKVSNKALPAPIEKTISKAKGQPREPQVCTLPPSRDELTKNQVSLSCAVKGFYPSDIAVEWESNGQPENNYKTTPPVLDSDGSFFLVSKLTVDKSRWQQGNVFSCSVMHEALHNHYTQKSLSLSPGK
# B3: IL-12-Fc-51 (Fc fusion)
# chain 1: TPDPGMFPCLHHSQNLLRAVSNMLQKARQTLEFYPCTSEEIDHRDITKDKTSTVEACLPLELTKNESCLNSRETSFITNGSCLASRKTSFMMALCLSSIYEDLKMYQVEFKTMNAKLLMDPKRQIFLDQNMLAVIDELMQALNFNSETVPQKSSLEEPDFYKTKIKLCILLHAFRIRAVTIDRVMSYLNASGGGGSGGGGSGGGGS[skipping human IgG1 Fc with L234A L235A D265S S354C T366W (EU numbers)]
# chain 2: IWELKKDVYVVELDWYPDAPGEMVVLTCDTPEEDGITWTLDQSSEVLGSGKTLTIQVKEFGDAGQYTCHKGGEVLSHSLLLLHKKEDGIWSTDILKDQKEPKNDTFLRCEAKNYSGRFTCWWLTTISTDLTFSVKSSRGSSDPQGVTCGAATLSAERVRGDNKEYEYSVECQEDSACPAAEESLPIEVMVDAVHKLKYENYTSSFFIRDIIKPDPPKNLQLKPLKNSRQVEVSWEYPDTWSTPHSYFSLTFCVQVQGKSKREKKDRVFTDKTSATVICRKNASISVRAQDRYYSSSWSEWASVPCSGGGGDKTHTCPPCPAPEAAGGPSVFLFPPKPKDTLMISRTPEVTCVVVSVSHEDPEVKFNWYVDGVEVHNAKTKPREEQYNSTYRVVSVLTVLHQDWLNGKEYKCKVSNKALPAPIEKTISKAKGQPREPQVCTLPPSRDELTKNQVSLSCAVKGFYPSDIAVEWESNGQPENNYKTTPPVLDSDGSFFLVSKLTVDKSRWQQGNVFSCSVMHEALHNHYTQKSLSLSPGK
# B4: IL-12-Fc-46 (Fc fusion)
# chain 1: TPDPGMFPCLHHSQNLLRAVSNMLQKARQTLEFYPCTSEEIDHEDITKDKTSTVEACLPLELTKNESCLNSRETSFITNGSCLASRKTSFMMALCLSSIYEDLKMYQVEFKTMNAKLLMDPKRQIFLDQNMLAVIDELMQALNFNSETVPQKSSLEEPRFYKTKIKLCILLHAFRIRAVTIDRVMSYLNASGGGGSGGGGSGGGGS[skipping human IgG1 Fc with L234A L235A D265S S354C T366W (EU numbers)]
# chain 2: IWELKKDVYVVELDWYPDAPGEMVVLTCDTPEEDGITWTLDQSSEVLGSGKTLTIQVKEFGDAGQYTCHKGGEVLSHSLLLLHKKEDGIWSTDILKDQKEPKNETFLRCEAKNYSGRFTCWWLTTISTDLTFSVKSSRGSSDPQGVTCGAATLSAERVRGDNKEYEYSVECQEDSACPAAEESLPIEVMVDAVHKLKYENYTSSFFIRDIIKPDPPKNLQLKPLKNSRQVEVSWEYPDTWSTPHSYFSLTFCVQVQGKSKREKKDRVFTDKTSATVICRKNASISVRAQDRYYSSSWSEWASVPCSGGGGDKTHTCPPCPAPEAAGGPSVFLFPPKPKDTLMISRTPEVTCVVVSVSHEDPEVKFNWYVDGVEVHNAKTKPREEQYNSTYRVVSVLTVLHQDWLNGKEYKCKVSNKALPAPIEKTISKAKGQPREPQVCTLPPSRDELTKNQVSLSCAVKGFYPSDIAVEWESNGQPENNYKTTPPVLDSDGSFFLVSKLTVDKSRWQQGNVFSCSVMHEALHNHYTQKSLSLSPGK
# B5: IL-12-Fc-47 (Fc fusion)
# chain 1: TPDPGMFPCLHHSQNLLRAVSNMLQKARQTLEFYPCTSEEIDHEDITKDKTSTVEACLPLELTKNESCLNSRETSFITNGSCLASRKTSFMMALCLSSIYEDLKMYQVEFKTMNAKLLMDPKRQIFLDQNMLAVIDELMQALNFNSETVPQKSSLEEPDFSKTKIKLCILLHAFRIRAVTIDRVMSYLNASGGGGSGGGGSGGGGS[skipping human IgG1 Fc with L234A L235A D265S S354C T366W (EU numbers)]
# chain 2: IWELKKDVYVVELDWYPDAPGEMVVLTCDTPEEDGITWTLDQSSEVLGSGKTLTIQVKEFGDAGQYTCHKGGEVLSHSLLLLHKKEDGIWSTDILKDQKEPKNETFLRCEAKNYSGRFTCWWLTTISTDLTFSVKSSRGSSDPQGVTCGAATLSAERVRGDNKEYEYSVECQEDSACPAAEESLPIEVMVDAVHKLKYENYTSSFFIRDIIKPDPPKNLQLKPLKNSRQVEVSWEYPDTWSTPHSYFSLTFCVQVQGKSKREKKDRVFTDKTSATVICRKNASISVRAQDRYYSSSWSEWASVPCSGGGGDKTHTCPPCPAPEAAGGPSVFLFPPKPKDTLMISRTPEVTCVVVSVSHEDPEVKFNWYVDGVEVHNAKTKPREEQYNSTYRVVSVLTVLHQDWLNGKEYKCKVSNKALPAPIEKTISKAKGQPREPQVCTLPPSRDELTKNQVSLSCAVKGFYPSDIAVEWESNGQPENNYKTTPPVLDSDGSFFLVSKLTVDKSRWQQGNVFSCSVMHEALHNHYTQKSLSLSPGK
# B6: IL-12-Fc-49 (Fc fusion)
# chain 1: TPDPGMFPCLHHSQNLLRAVSNMLQKARQTLEFYPCTSEEIDHEDITKDKTSTVEACLPLELTKNESCLNSRETSFITNGSCLASRKTSFMMALCLSSIYEDLKMYQVEFKTMNAKLLMDPKRQIFLDQNMLAVIDELMQALNFNSETVPQKSSLEEPDFAKTKIKLCILLHAFRIRAVTIDRVMSYLNASGGGGSGGGGSGGGGS[skipping human IgG1 Fc with L234A L235A D265S S354C T366W (EU numbers)]
# chain 2: IWELKKDVYVVELDWYPDAPGEMVVLTCDTPEEDGITWTLDQSSEVLGSGKTLTIQVKEFGDAGQYTCHKGGEVLSHSLLLLHKKEDGIWSTDILKDQKEPKNETFLRCEAKNYSGRFTCWWLTTISTDLTFSVKSSRGSSDPQGVTCGAATLSAERVRGDNKEYEYSVECQEDSACPAAEESLPIEVMVDAVHKLKYENYTSSFFIRDIIKPDPPKNLQLKPLKNSRQVEVSWEYPDTWSTPHSYFSLTFCVQVQGKSKREKKDRVFTDKTSATVICRKNASISVRAQDRYYSSSWSEWASVPCSGGGGDKTHTCPPCPAPEAAGGPSVFLFPPKPKDTLMISRTPEVTCVVVSVSHEDPEVKFNWYVDGVEVHNAKTKPREEQYNSTYRVVSVLTVLHQDWLNGKEYKCKVSNKALPAPIEKTISKAKGQPREPQVCTLPPSRDELTKNQVSLSCAVKGFYPSDIAVEWESNGQPENNYKTTPPVLDSDGSFFLVSKLTVDKSRWQQGNVFSCSVMHEALHNHYTQKSLSLSPGK
# B7: IL-12-Fc-50 (Fc fusion)
# chain 1: TPDPGMFPCLHHSQNLLRAVSNMLQKARQTLEFYPCTSEESDHEDITKDKTSTVEACLPLELTKNESCLNSRETSFITNGSCLASRKTSFMMALCLSSIYEDLKMYQVEFKTMNAKLLMDPKRQIFLDQNMLAVIDELMQALNFNSETVPQKSSLEEPDFYKTKIKLCILLHAFRIRAVTIDRVMSYLNASGGGGSGGGGSGGGGS[skipping human IgG1 Fc with L234A L235A D265S S354C T366W (EU numbers)]
# chain 2: IWELKKDVYVVELDWYPDAPGEMVVLTCDTPEEDGITWTLDQSSEVLGSGKTLTIQVKEFGDAGQYTCHKGGEVLSHSLLLLHKKEDGIWSTDILKDQKEPKNDTFLRCEAKNYSGRFTCWWLTTISTDLTFSVKSSRGSSDPQGVTCGAATLSAERVRGDNKEYEYSVECQEDSACPAAEESLPIEVMVDAVHKLKYENYTSSFFIRDIIKPDPPKNLQLKPLKNSRQVEVSWEYPDTWSTPHSYFSLTFCVQVQGKSKREKKDRVFTDKTSATVICRKNASISVRAQDRYYSSSWSEWASVPCSGGGGDKTHTCPPCPAPEAAGGPSVFLFPPKPKDTLMISRTPEVTCVVVSVSHEDPEVKFNWYVDGVEVHNAKTKPREEQYNSTYRVVSVLTVLHQDWLNGKEYKCKVSNKALPAPIEKTISKAKGQPREPQVCTLPPSRDELTKNQVSLSCAVKGFYPSDIAVEWESNGQPENNYKTTPPVLDSDGSFFLVSKLTVDKSRWQQGNVFSCSVMHEALHNHYTQKSLSLSPGK
# Target: human IL-12 receptor (IL-12R) (human, UniProt P42701 24-662; Q99665 24-862)
# Assay: cell-based or functional assay
row,Binder,Mean Fold Reduction (potency vs IL-12 WT by EC50; HEK-Blue IL-12 STAT4/SEAP reporter) [fold]
1,B1,1
2,B2,209
3,B3,2
4,B4,1
5,B5,45
6,B6,6
7,B7,2
